# Measured values: paper PMC4336329 (PLoS ONE, 2015)
# In all, about 310,000 compounds went through this assay and about 2,200 (0.71%) showed an effect of 50% or more. The effect is printed as a negative number. Some of the results follow.
# Biological target: human ether-à-go-go-related gene (hERG) potassium channel (human, UniProt Q12809)
# Test: primary screen, population patch clamp on CHO cells stably expressing hERG
# Sequence of human ether-à-go-go-related gene (hERG) potassium channel (Q12809 whole entry, looked up): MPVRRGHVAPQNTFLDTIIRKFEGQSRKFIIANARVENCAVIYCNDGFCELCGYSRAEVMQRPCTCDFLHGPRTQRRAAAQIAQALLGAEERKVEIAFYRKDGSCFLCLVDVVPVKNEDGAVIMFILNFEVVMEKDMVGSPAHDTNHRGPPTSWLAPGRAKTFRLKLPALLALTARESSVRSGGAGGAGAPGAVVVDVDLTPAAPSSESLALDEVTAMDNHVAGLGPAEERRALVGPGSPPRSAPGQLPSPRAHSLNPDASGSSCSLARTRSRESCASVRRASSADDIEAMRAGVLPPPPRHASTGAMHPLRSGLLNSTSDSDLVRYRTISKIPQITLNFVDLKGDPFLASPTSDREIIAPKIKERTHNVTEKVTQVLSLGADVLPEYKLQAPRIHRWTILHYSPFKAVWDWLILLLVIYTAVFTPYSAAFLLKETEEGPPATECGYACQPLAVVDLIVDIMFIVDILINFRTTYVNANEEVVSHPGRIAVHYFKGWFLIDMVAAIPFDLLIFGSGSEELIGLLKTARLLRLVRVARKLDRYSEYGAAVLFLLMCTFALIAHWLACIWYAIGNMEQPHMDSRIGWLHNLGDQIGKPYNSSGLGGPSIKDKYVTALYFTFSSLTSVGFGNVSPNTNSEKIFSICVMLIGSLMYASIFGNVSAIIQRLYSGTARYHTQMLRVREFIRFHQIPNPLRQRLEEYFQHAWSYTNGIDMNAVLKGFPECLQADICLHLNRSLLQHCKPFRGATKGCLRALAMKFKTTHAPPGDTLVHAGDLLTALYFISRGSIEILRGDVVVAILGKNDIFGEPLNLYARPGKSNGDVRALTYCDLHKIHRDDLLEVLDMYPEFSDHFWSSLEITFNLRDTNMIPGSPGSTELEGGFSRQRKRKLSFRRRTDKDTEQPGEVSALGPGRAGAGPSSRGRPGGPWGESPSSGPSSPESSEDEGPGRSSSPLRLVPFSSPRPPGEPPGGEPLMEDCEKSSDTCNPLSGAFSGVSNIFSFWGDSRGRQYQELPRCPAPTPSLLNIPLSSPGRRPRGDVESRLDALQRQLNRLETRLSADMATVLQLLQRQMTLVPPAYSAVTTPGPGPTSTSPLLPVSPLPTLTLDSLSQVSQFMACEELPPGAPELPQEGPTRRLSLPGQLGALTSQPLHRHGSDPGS
row,SMILES,"hERG current change (%, negative = inhibition) at 1uM"
1,CCOc1ccc(NC(=O)CN(C)C(=O)CCCc2c[nH]c3ccccc23)cc1OCC,20%
2,Cc1cc(NCCCN2CCOCC2)n2nc(C)c(-c3ccccc3)c2n1,8.8%
3,Cc1ccc(C(=O)Nc2cccc(C(=O)N3CCN(C)CC3)c2)cc1,1.56%
4,O=C(Nc1ccc(N2CCN(C(=O)c3ccccc3)CC2)c(Cl)c1)c1ccc(Br)o1,-8.64%
5,Cc1c(Br)c([N+](=O)[O-])nn1CC(=O)Nc1cccc2nonc12,14.7%
6,CN1CCN(c2nc3c(c(=O)n(C)c(=O)n3C)n2CC(=O)C23CC4CC(CC(C4)C2)C3)CC1,9.83%
7,CC(=O)Nc1ccc(S(=O)(=O)NC2Cc3ccccc3C2)cc1,14.2%
8,C=CCn1c(SCC(=O)NCCc2ccccc2)nc2c([nH]c3ccccc32)c1=O,8.25%
9,COc1ccccc1C(=O)Nc1ccccn1,3.42%
10,Cc1ccccc1OCC(=O)N/N=C1\SCC(=O)N1Cc1ccccc1,2.71%
11,O=C(NCCC1=CCCCC1)c1cnsn1,15.3%
12,C=CCn1c(N2CCN(c3ccc(OC)cc3)CC2)nc2c1c(=O)n(C)c(=O)n2C,2.71%
13,O=C(Nc1ccc(F)c(F)c1)C1CCN(S(=O)(=O)c2cccs2)CC1,7.45%
14,O=C(/C(=N\Nc1ccc(Br)cc1)Sc1nnnn1-c1ccccc1)c1ccccc1,13.8%
15,Cc1ccc(S(=O)(=O)CCC(=O)N2CCc3ccccc32)cc1,5.5%
16,CC1CCc2c(C(=O)Oc3cccc(-n4cnnn4)c3)csc2C1 (stereo not drawn),-2.65%
17,Cc1cc(/C=C(\C#N)C(=O)N2CCOCC2)c(C)n1C1CCCC1,5.88%
18,C#CCOCCOCCOCCNc1nc(N2CCOCC2)nc(N2CCN(C(=O)[C@H](CCC(=O)O)n3cc(C(N)[C@H](C)CC)nn3)CC2)n1.Cl (stereo partly drawn),11.9%
19,COc1ccc(OC)c(NC(=O)COC(=O)CCCN2C(=O)c3ccccc3C2=O)c1,10.4%
20,CNc1ncc(Cc2ccccc2)s1,1.64%
21,COc1ccccc1OCC(=O)NC1CCCCCC1,10.2%
22,CC(=O)N1c2ccc(S(=O)(=O)N(C)CC(=O)NC3CCCCC3C)cc2CC1C (stereo not drawn),17.5%
23,COc1ccc(N/C(=N/c2nc(C)cc(C)n2)NC(=O)Nc2ccc(Cl)c(Cl)c2)c(OC)c1,-4.86%
24,C[C@@H](N)C(=O)NCC1CCC(C(=O)N[C@@H](Cc2ccccc2)C(=O)O)CC1.Cl (stereo partly drawn),15.7%
